In all, about 100,000 compounds went through this assay and about 250 (0.25%) were called active. The inconclusive results got no clear call from the source; some entries with a clear call stand among them for comparison. The call rests on the fitted dose curve; in most records, active means well fitted inhibition curve with a large enough effect; inconclusive means small, poorly fitted or top-dose-only effect; inactive means flat fitted curve, though single readings scatter. No potency is given beside an inconclusive call; the fits are too rough.
molecular target: Alanine aminotransferase 2 (Homo sapiens) (UniProt Q8TD30); assay: Primary qHTS assay for inhibitors of Glutamate pyruvate transaminase 2 (GPT2); conditions: Recombinant GPT2, coupled pyruvate oxidase/HRP Amplex Red fluorescence; activity change, negative = inhibition: at 57.7 µM (top of the series) unless noted; series mostly up to 57.7 µM; further: nearly all actives have a fitted effect of over 60% in size
In short: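 Recombinant GPT2 (10ng/uL) with 250uM a-KG and 2mM L-alanine, 30 min at room temperature, in HEPES pH 7.5 buffer. Pyruvate detected by pyruvate oxidase/HRP/Amplex Red fluorescence after 30 min in the dark; AOA (50uM) as positive control.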
On the % scale 0 is the no-effect control and ±100 the full control effect; potency means the concentration at half of the fitted maximal effect; tags describe the fitted curve by direction and shape.

Chain of UniProt Q8TD30 (Q8TD30 whole entry, looked up): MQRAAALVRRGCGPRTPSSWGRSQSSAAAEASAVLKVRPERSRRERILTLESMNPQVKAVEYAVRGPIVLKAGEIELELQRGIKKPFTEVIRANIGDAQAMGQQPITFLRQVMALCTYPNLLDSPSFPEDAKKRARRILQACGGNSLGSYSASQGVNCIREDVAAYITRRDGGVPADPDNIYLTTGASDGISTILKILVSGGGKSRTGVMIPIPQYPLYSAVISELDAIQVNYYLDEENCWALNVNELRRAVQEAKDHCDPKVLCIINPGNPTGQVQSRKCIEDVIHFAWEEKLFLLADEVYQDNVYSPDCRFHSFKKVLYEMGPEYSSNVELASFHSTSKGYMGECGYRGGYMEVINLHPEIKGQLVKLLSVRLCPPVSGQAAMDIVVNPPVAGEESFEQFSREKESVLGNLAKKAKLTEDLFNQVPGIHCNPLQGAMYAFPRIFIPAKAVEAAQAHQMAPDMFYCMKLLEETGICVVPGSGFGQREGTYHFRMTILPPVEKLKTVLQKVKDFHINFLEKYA

Structure (SMILES)	Potency	outcome	activity change, negative = inhibition
COCCn1cnc2ccc(-c3cccc(C(F)(F)F)c3)nc2c1=O	inconclusive [inhibitor, single point]	–	–
c1coc(-c2noc(CNCc3cccnc3-n3cncn3)n2)c1	inconclusive [inhibitor, single point]	–	–
O=C(COc1ccccc1)N1CCOc2ccc(CN3CCc4ccccc4C3)cc2C1	–	inactive	–
CC(C)=CC[C@@H](O)C1=CC(=O)c2c(O)ccc(O)c2C1=O	active: 12.2 µM	–	–
Cc1ccc(OCc2cc(C(=O)NC(Cc3ccccc3)c3ccccc3)no2)cn1 (stereo not drawn)	–	–	inactive: -0.541%
CCn1cc(S(=O)(=O)N2CCCC(Cc3noc(-c4cccnc4)n3)C2)cn1 (stereo not drawn)	–	inactive	–
Cn1nccc1C(=O)NC1CCCN(c2cc(N3CCCC3)ncn2)C1 (stereo not drawn)	inconclusive [inhibitor, partial curve, poor fit]	–	–
Cc1cc(C(=O)N2CC[C@H](NC(=O)c3cnccn3)C[C@H]2C(=O)N[C@H](Cc2ccccc2)C(N)=O)n(C)n1	inconclusive [inhibitor, partial curve, poor fit]	–	–
C=CC(C)(O)CO[C@@H]1O[C@H](CO)[C@@H](O)[C@H](O)[C@H]1O (stereo partly drawn)	inconclusive [inhibitor, partial curve, poor fit]	–	–
COc1ccccc1C(=O)N1CCCN(c2cc(-c3ccc(Cl)cc3)[nH]n2)CC1	inconclusive [inhibitor, single point]	–	–
Cc1nc(-c2c3n(c(=O)n(CC(=O)NCc4ccccc4Cl)c2=O)CCCCC3)no1	inconclusive [inhibitor, partial curve, poor fit]	–	–
CCc1ccc(C(=O)N2CCC(Oc3nccnc3N(C)C)C2)cc1 (stereo not drawn)	inconclusive [inhibitor, single point]	–	–
COCc1ccc2c(c1)c(OC(C)(C)C(=O)NCc1ccncc1)nn2Cc1ccccc1	–	–	inactive: -2.48%
CN(C)c1ccc(NC(=O)c2ccc3c(c2)N(C)C2CCCCN2C3=O)cc1 (stereo not drawn)	inconclusive [inhibitor, partial curve, poor fit]	–	–
COCc1cc(C[C@@H]2CC[C@H](O)[C@@H](CNC(=O)NC3CCCCC3)O2)no1	inconclusive [inhibitor, single point]	–	–
CC(C)NC(=O)N[C@H]1C[C@H]2C(=O)NC[C@@H](CCC(=O)N3CCOCC3)N2C1	inconclusive [inhibitor, single point]	–	–
N[C@@H]1CCN(Cc2ccccc2OCc2ccc(Cl)cc2)C[C@H]1O	–	inactive	–
COc1cc(OC)cc(C(=O)N2CCC3(CC2)NC(=O)N(c2ccc(F)cc2)N3)c1	inconclusive [inhibitor, partial curve, poor fit]	–	–
CN(C)c1cccc(C(=O)N2CCNc3cnc(Nc4ccc(N5CCOCC5)cc4)nc3C2)c1	active: 2 µM	–	–
COc1cccc(CNC(=O)C2CCN(C(=O)c3ccc(-c4cccc(OC)c4)cc3)CC2)c1	inconclusive [inhibitor, single point]	–	–
Cc1ccc2nc(CO[C@H]3CN(C(=O)C4CC4)C[C@H]3F)[nH]c2c1	inconclusive [inhibitor, single point]	–	–

Structure (SMILES)	Potency	outcome	activity change, negative = inhibition
O=C(c1ccco1)N1CCCC(CCc2cccc(F)c2)C1 (stereo not drawn)	–	–	inactive: -8.54%
O=C(Cc1cccc(Cl)c1)NCCNC(=O)c1cccc(-c2ccc(C(F)(F)F)cc2)c1	–	–	inactive: -0.408%
Cc1cc(C(=O)NC2CC(C)(C)Cc3nc(N4CCOCC4)ncc32)nn1C (stereo not drawn)	inconclusive [inhibitor, single point]	–	–
O=C(NCCC1=CCCCC1)c1cc2n(n1)CC(c1ccc(Cl)cc1)OC2 (stereo not drawn)	inconclusive [inhibitor, single point]	–	–
N[C@@H](CO)c1nc(C2CCOCC2)nn1-c1ccccc1F	inconclusive [inhibitor, full curve, poor fit]	–	–
CN(c1ccccc1)c1cc(=O)c2ccnc(-c3cncnc3)c2o1	inconclusive [inhibitor, single point]	–	–
COc1ncccc1-c1nc2cc(C(=O)NCc3cccc(Cl)c3)ccc2o1	inconclusive [inhibitor, single point]	–	–
O=C(CCn1ccn2nc3c(c2c1=O)CCCC3)N1CC(=O)N(CCc2ccccc2)C(=O)C1	–	inactive	–
CC(NC(=O)C1CCN(c2cc(C(F)(F)F)ncn2)CC1)c1ccccc1 (stereo not drawn)	inconclusive [inhibitor, single point]	–	–
COCCOc1ncccc1-c1noc([C@@H]2CCCN2C2CCN(C(C)=O)CC2)n1	inconclusive [inhibitor, single point]	–	–
COCCn1c(C)cnc1CCNC(=O)c1ccc(OC)nc1OC	inconclusive [inhibitor, single point]	–	–
C[C@@H]1O[C@@H](O[C@H]2[C@@H]3C=CO[C@@H](O[C@@H]4O[C@H](CO)[C@@H](O)[C@H](O)[C@H]4O)[C@@H]3[C@@]3(CO)O[C@@H]23)[C@H](OC(=O)/C=C/c2ccc(O)c(O)c2)[C@H](O)[C@H]1O	inconclusive [inhibitor, single point]	–	–
CC(C)NC[C@@H](O)c1ccc(O)c(O)c1	inconclusive [inhibitor, partial curve, poor fit]	–	–
O=C(C(=O)N1CCc2[nH]nc(-c3cccc4ccccc34)c2C1)c1cccnc1	inconclusive [inhibitor, single point]	–	–
Cc1cccc(-c2nc3ccc(C(=O)NCc4ccccc4)cc3o2)n1	–	inactive	–
Cc1ccc2c(C(=O)N3CCN(c4ccccc4F)CC3)cc(NC(=O)C(C)C)cc2n1	inconclusive [inhibitor, partial curve, poor fit]	–	–
COc1ccc(-c2cc(N3CCCN(C(=O)CC4CCCCC4)CC3)n[nH]2)cc1	inconclusive [inhibitor, single point]	–	–
CN1C[C@@H](NC(=O)NC2CCCCC2)C[C@H]1c1nc(Cc2ccccc2)no1	inconclusive [inhibitor, partial curve, poor fit]	–	–
COc1cccc(C(=O)N[C@H]2[C@H](O)[C@H](O)C[C@@H]2c2ccc(C(F)(F)F)nc2)c1	–	inactive [at 88.5 µM]	–
O=C(NC1CCCCC1)N1CCCCCC1CN1CCCC1 (stereo not drawn)	–	inactive	–
CCOc1cc(=O)n2c(c1C(=O)Nc1ccc(S(N)(=O)=O)cc1)CCCC2	–	inactive	–

Structure (SMILES)	Potency	outcome	activity change, negative = inhibition
C=CCNC(=O)[C@@H]1Cc2cn(Cc3nccn3C)c3cccc(c23)[C@H](CC(C)C)N1	inconclusive [inhibitor, single point]	–	–
C[C@H]1C[C@@H]2[C@@H]([C@@H](O)C[C@@]3(C)[C@H]2CC[C@]3(O)C(=O)CO)[C@@]2(C)C=CC(=O)C=C12	–	–	inconclusive: -45% [inhibitor]
COC[C@@H]1CN(C(=O)C2=NNC(=O)CC2)C[C@H]1c1ccncc1	–	–	inactive: 0.369%
Cc1ccccc1N(C)C1CN(Cc2ccccc2)C1	inconclusive [inhibitor, single point]	–	–
NC(=S)N/N=C/c1cccnc1	inconclusive [inhibitor, single point]	–	–
O=C([C@@H]1Cc2nc[nH]c2CN1Cc1cccc(OC(F)(F)F)c1)N1CCOCC1	inconclusive [inhibitor, single point]	–	–
COc1ccc(N2CCN(C(=O)CN3C(=O)NC4(CCC(C)CC4)C3=O)CC2)cc1 (stereo not drawn)	inconclusive [inhibitor, full curve, poor fit]	–	–
CSc1ccc(-c2noc(-c3ncn4c3COC(c3ccc(F)cc3)C4)n2)cc1 (stereo not drawn)	–	inactive	–
CCS(=O)(=O)Nc1ccc(C(=O)N2CCC3(CCCN(C)C3=O)C2)cc1 (stereo not drawn)	–	–	inactive: -15.4%
Cc1noc(-c2ccc(OC(F)(F)F)cc2)c1C(=O)NCCCc1ccccc1	–	inactive	–
CN(C)[C@@H]1CN(C(=O)c2ccccc2OC(F)(F)F)C[C@H]1CO	inconclusive [inhibitor, partial curve, poor fit]	–	–
COc1ccc2nc3n(c2c1)[C@@H](CNCc1ccc(C(F)(F)F)cc1)COC3	inconclusive [inhibitor, single point]	–	–
CN(C)[C@@H]1CN(C(=O)c2ccccc2)CC[C@]1(O)c1ccccc1	–	–	inactive: -3.18%
Cc1ccc(C)c(NC(=O)CNS(=O)(=O)c2ccc3[nH]c(=O)oc3c2)c1	inconclusive [inhibitor, single point]	–	–
CCn1c(=O)c2ccnn2c2ccc(C(=O)NCc3ccccc3)cc21	inconclusive [inhibitor, single point]	–	–
COc1ccc(-c2nc(C)nc3c2CN([S+](=O)([O-])c2ccc(C)cc2)CC3)cc1	–	–	inactive: -0.315%
Cc1ccc(CC(=O)N2CCCN(c3cc(-c4ccccc4)[nH]n3)CC2)cc1	inconclusive [inhibitor, partial curve, poor fit]	–	–
CC(=O)O[C@@](C)(C(=O)/C=C/C(C)(C)O)[C@H]1[C@H](O)C[C@@]2(C)[C@@H]3CC=C4[C@@H](C=C(O)C(=O)C4(C)C)[C@]3(C)C(=O)C[C@]12C	inconclusive [inhibitor, single point]	–	–
O=C(c1nnc(COc2cc(F)cc(F)c2)n1-c1ccccc1)N1CCC[C@@H]1c1cccc(F)c1	–	–	inactive: 2.17%
COc1ccc(CN2CCOc3nc(-c4cccc(NC(C)=O)c4)ncc3C2=O)cc1	–	–	inactive: -1.04% [at 88.5 µM]
CC1(C)[C@H](Cc2cc(CC3CCCCC3)on2)C[C@@H]1NC(=O)C1CCCC1	inconclusive [inhibitor, single point]	–	–

Reference: PubChem BioAssay AID1671188 (National Center for Advancing Translational Sciences (NCATS), 2021)
